# Test results: the antibiotic and cytotoxicity screens of Wong et al. (2023)
# The list shows a part of the results.
# Experiments:
# HSkMC = human skeletal muscle cells; assay: cytotoxicity call (relative viability < 0.9); conditions: 10 µM
# HepG2 = assay: cytotoxicity call (relative viability < 0.9); conditions: 10 µM
# S. aureus RN4220 = assay: growth inhibition call (relative growth <= 0.2); conditions: 50 µM
SMILES,cytotoxicity call (HSkMC),cytotoxicity call (HepG2),growth inhibition call (S. aureus RN4220)
C[C@H](CO)N1C[C@H](C)[C@H](CN(C)Cc2ccncc2)Oc2c(NS(=O)(=O)c3ccc(F)cc3)cccc2C1=O,inactive,inactive,inactive
O=C(C[C@@H]1C[C@@H]2c3cc(NC(=O)Nc4ccc(C(F)(F)F)cc4)ccc3O[C@@H]2[C@@H](CO)O1)NCCc1ccccc1,inactive,inactive,inactive
C[C@@H]1CN([C@@H](C)CO)S(=O)(=O)c2ccc(C#CC3(O)CCCC3)cc2O[C@@H]1CN(C)C(=O)Nc1cccc(F)c1,inactive,inactive,inactive
COc1ccc(-c2coc3c(O)c(O)c(OC)cc3c2=O)cc1,inactive,active,inactive
O=C(NCCNS(=O)(=O)c1cccc2nonc12)[C@H]1COc2ccccc2O1,inactive,inactive,inactive
CCS(=O)(=O)Nc1ccc2c(c1)C(=O)N(C)[C@@H]1CC[C@@H](CC(=O)N[C@H]3CCN(Cc4ccccc4)C3)O[C@H]1CO2,inactive,inactive,inactive
C[C@H](CO)N1C[C@H](C)[C@H](CN(C)C(=O)c2cccc(F)c2)Oc2cc(-c3cccnc3)ccc2S1(=O)=O,inactive,inactive,inactive
CC(=C\c1ccccc1)/C(C)=N/O,inactive,inactive,inactive
C[C@@H]1CN([C@@H](C)CO)C(=O)c2cc(C3=CCCCC3)cnc2O[C@H]1CN(C)S(=O)(=O)c1cn(C)cn1,inactive,inactive,inactive
C[C@@H]1CN([C@H](C)CO)C(=O)c2cc(NC(=O)Cn3cnnn3)ccc2O[C@H]1CN(C)C(=O)Nc1cccc2ccccc12,inactive,active,inactive
CC(C)NC(=O)N(C)C[C@H]1Oc2ccc(NS(=O)(=O)c3cn(C)cn3)cc2C(=O)N([C@@H](C)CO)C[C@H]1C,inactive,inactive,inactive
COc1ccc(-c2ccccc2)cc1NC(=O)c1ccc2nc(C)c(N(C)C(=O)CCc3ccccc3)n2c1,inactive,inactive,inactive
Cc1noc(C)c1NC(=O)Nc1ccc2c(c1)C(=O)N([C@@H](C)CO)C[C@H](C)[C@H](CN(C)Cc1ccncc1)OCCCC[C@H](C)O2,inactive,inactive,inactive
C[C@H](CO)N1C[C@H](C)[C@H](CN(C)S(=O)(=O)c2ccc(Cl)cc2)Oc2ccc(NC(=O)CCCN(C)C)cc2CC1=O,inactive,inactive,inactive
C[C@@H]1CCCCO[C@H](CN(C)Cc2ccc(C(=O)O)cc2)[C@@H](C)CN([C@@H](C)CO)C(=O)c2cc(NC(=O)Nc3ccccc3)ccc2O1,inactive,inactive,inactive
C[C@H](CO)N1C[C@H](C)[C@@H](CN(C)Cc2ccccc2F)Oc2cc(C#CCN(C)C)ccc2S1(=O)=O,inactive,inactive,inactive
Cc1ccc(S(=O)(=O)Nc2ccc3c(c2)C(=O)N([C@@H](C)CO)C[C@H](C)[C@@H](CN(C)C(=O)Nc2ccc(F)cc2)OCCCC[C@@H](C)O3)cc1,inactive,inactive,inactive
C[C@@H]1CN([C@H](C)CO)C(=O)c2cccc(NS(=O)(=O)c3ccc(Cl)cc3)c2O[C@H]1CN(C)C(=O)Nc1ccc(C(F)(F)F)cc1,inactive,inactive,inactive
COc1ccc(CN(C)C[C@H]2Oc3ccc(NC(=O)Cn4cnnn4)cc3CC(=O)N([C@@H](C)CO)C[C@@H]2C)cc1,inactive,inactive,inactive
C[C@@H]1CCCCO[C@@H](CN(C)Cc2ccccc2)[C@H](C)CN([C@H](C)CO)C(=O)c2cc(NS(=O)(=O)c3ccc(F)cc3)ccc2O1,inactive,inactive,inactive
Nc1cc(=O)[nH]c(=O)n1Cc1ccccc1,inactive,inactive,inactive
CC(=O)C1CCC2C3CC(C)C4=CC(=O)CCC4(C)C3C(O)CC12C (configuration not stated),inactive,inactive,inactive
C[C@H](CO)N1C[C@H](C)[C@@H](CN(C)S(C)(=O)=O)Oc2ccc(N(C)C)cc2C1=O,inactive,inactive,inactive
C[C@@H]1CN([C@@H](C)CO)S(=O)(=O)c2ccc(-c3cccnc3)cc2O[C@@H]1CN(C)C(=O)NC1CCCCC1,inactive,inactive,inactive
COc1cccc(S(=O)(=O)N(C)C[C@H]2OCc3cnnn3CCCC(=O)N([C@@H](C)CO)C[C@@H]2C)c1,inactive,inactive,inactive
COc1ccc(S(=O)(=O)Nc2ccc3c(c2)CC(=O)N([C@@H](C)CO)C[C@@H](C)[C@H](CN(C)C(=O)Nc2c(C)noc2C)O3)cc1,inactive,inactive,inactive
Cc1nc(COP(=O)(O)O)cc2c1[O][Mn][O]c1c(cc(COP(=O)(O)O)nc1C)CN(CC(=O)O)CCN(CC(=O)O)C2,inactive,inactive,inactive

SMILES,cytotoxicity call (HSkMC),cytotoxicity call (HepG2),growth inhibition call (S. aureus RN4220)
C[C@@H]1CN([C@H](C)CO)S(=O)(=O)c2ccc(C#CC3(O)CCCC3)cc2O[C@H]1CN(C)C(=O)c1cccnc1,inactive,inactive,inactive
C[C@H]1CCCCO[C@H](CN(C)C(=O)NC2CCCCC2)[C@@H](C)CN([C@@H](C)CO)C(=O)c2cc(NS(=O)(=O)c3ccc(Cl)cc3)ccc2O1,inactive,inactive,inactive
C[C@@H]1CN([C@@H](C)CO)C(=O)Cc2cc(NC(=O)Nc3cccc4ccccc34)ccc2O[C@H]1CN(C)C(=O)Nc1ccccc1,inactive,inactive,inactive
C[C@H]1CN([C@@H](C)CO)C(=O)c2ccccc2-c2ccccc2CO[C@@H]1CN(C)C(=O)Nc1ccccc1C(F)(F)F,inactive,inactive,inactive
C[C@H](CO)N1C[C@H](C)[C@H](CN(C)S(=O)(=O)c2cn(C)cn2)Oc2ncc(C#Cc3ccc(F)cc3)cc2C1=O,inactive,inactive,inactive
O=C(C[C@@H]1CC[C@H]2[C@@H](COC[C@@H](O)CN2S(=O)(=O)c2ccc(F)cc2)O1)N[C@H]1CCN(Cc2ccccc2)C1,inactive,inactive,inactive
C[C@@H]1CCCCO[C@@H](CN(C)C(=O)c2ccccc2)[C@H](C)CN([C@H](C)CO)C(=O)c2cc(NC(=O)C3CCCCC3)ccc2O1,inactive,inactive,inactive
C[C@@H]1CN([C@H](C)CO)C(=O)CCCn2cc(nn2)CO[C@@H]1CN(C)C(=O)c1cc(-c2ccccc2)on1,inactive,inactive,inactive
C[C@@H]1CCCCO[C@@H](CN(C)Cc2ccc(C(=O)O)cc2)[C@H](C)CN([C@@H](C)CO)C(=O)c2cc(NC(=O)Nc3ccc(C(F)(F)F)cc3)ccc2O1,inactive,inactive,inactive
CCNC(=O)c1csc(N)n1,inactive,inactive,inactive
CCS(=O)(=O)N1C[C@]2(CN(C2)C(=O)c2ccc3c(c2)OCO3)c2c(n(c3cc(ccc23)OC)C)[C@H]1CO,inactive,inactive,inactive
O=C(C[C@H]1C=C[C@@H](NC(=O)Nc2cc(F)ccc2F)[C@@H](CO)O1)NCCCN1CCOCC1,inactive,inactive,inactive
CC(C)NC(=O)N(C)C[C@@H]1Oc2ccc(NS(=O)(=O)c3cn(C)cn3)cc2C(=O)N([C@@H](C)CO)C[C@H]1C,inactive,inactive,inactive
C[C@@H]1CN([C@H](C)CO)C(=O)c2c(c3ccccc3n2C)-c2ccccc2CO[C@@H]1CN(C)S(=O)(=O)c1ccc(C(F)(F)F)cc1,inactive,inactive,inactive
C[C@H](CO)N1C[C@H](C)[C@H](CN(C)Cc2ccc(C(=O)O)cc2)Oc2ccc(NS(=O)(=O)c3cn(C)cn3)cc2CC1=O,inactive,inactive,inactive
COc1cc2c(cc1OC)C1Cc3ccc(OC)c(OC)c3CN1CC2 (configuration not stated),inactive,inactive,inactive
CCCC#Cc1ccc2c(c1)O[C@H](CN(C)S(=O)(=O)c1cccc(F)c1)[C@@H](C)CN([C@@H](C)CO)S2(=O)=O,inactive,inactive,inactive
C[C@@H]1CCCCO[C@H](CN(C)Cc2ccccc2)[C@@H](C)CN([C@@H](C)CO)C(=O)c2cc(NC(=O)CCCCCC(=O)Nc3ccccc3N)ccc2O1,inactive,inactive,inactive
C[C@@H]1CN([C@H](C)CO)C(=O)Cc2cc(NS(=O)(=O)c3ccccc3)ccc2O[C@H]1CN(C)Cc1ccncc1,inactive,inactive,inactive
C[C@@H]1CCCCO[C@@H](CN(C)Cc2ccc(C(=O)O)cc2)[C@@H](C)CN([C@H](C)CO)C(=O)c2cc(NC(=O)Nc3cccc4ccccc34)ccc2O1,inactive,inactive,inactive
CCOC(=O)[C@H]1C/C=C/C[C@H](C(=O)OCC)C(=O)O[C@H]2[C@@H](OC)O[C@H](CO)[C@@H](OC(=O)Nc3ccccc3)[C@@H]2OC1=O,inactive,inactive,inactive
C[C@@H]1CCCCO[C@@H](CN(C)C(=O)c2ccccc2)[C@@H](C)CN([C@H](C)CO)C(=O)c2cc(NC(=O)CCCCCC(=O)Nc3ccccc3N)ccc2O1,inactive,inactive,inactive
CO[C@@H]1CN(C)C(=O)c2cc(NC(=O)CC(F)(F)F)ccc2OC[C@H](C)N(S(=O)(=O)c2cn(C)cn2)C[C@@H]1C,inactive,inactive,inactive
COc1ccc([Si](C)(C)[C@H]2[C@H](CCO)O[C@@]3(C(=O)N(Cc4ccc(N5C(=O)c6ccccc6Oc6ccccc65)cc4)c4ccccc43)[C@@H]2C)cc1,inactive,active,inactive
COc1ccccc1CNC(=O)C[C@@H]1C[C@@H]2c3cc(NC(=O)c4ccc5c(c4)OCO5)ccc3O[C@@H]2[C@H](CO)O1,inactive,inactive,inactive
Cc1cc(C(=O)Nc2cccc3c2O[C@@H](CN(C)Cc2ccc(Oc4ccccc4)cc2)[C@H](C)CN([C@@H](C)CO)C3=O)n(C)n1,inactive,inactive,inactive
C[C@@H]1CN([C@@H](C)CO)C(=O)c2cc(NS(=O)(=O)c3cccs3)ccc2O[C@@H](C)CCCCO[C@@H]1CN(C)C(=O)Nc1ccc2c(c1)OCO2,inactive,inactive,inactive
